# According to article PMC7819943, “Rice protein-binding microarrays: a tool to detect cis-acting elements near promoter regions in rice”:
# The other results are listed elsewhere or left out.
# Target: T1, OsWOX13 (Oryza sativa, UniProt Q5QMM3 1-267)
# T1 sequence: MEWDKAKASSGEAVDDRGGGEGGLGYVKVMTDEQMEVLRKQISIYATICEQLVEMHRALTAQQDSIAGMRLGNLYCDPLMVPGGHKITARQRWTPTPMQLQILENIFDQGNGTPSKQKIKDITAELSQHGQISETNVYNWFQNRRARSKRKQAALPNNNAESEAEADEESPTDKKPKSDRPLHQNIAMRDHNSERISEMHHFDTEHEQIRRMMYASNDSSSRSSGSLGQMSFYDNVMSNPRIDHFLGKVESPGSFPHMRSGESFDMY
# Test: protein-binding microarray (RPBM); PBS, 2% BSA, 51.3 ng/ul salmon testes DNA, 50 uM zinc acetate, 200 nM TF, 25 C, 1 h; high values mean tight binding
# Conditions: protein: recombinant; tags: N-terminal polyhistidine and DsRed monomer fusion (pET32a); label: CyDye5-dUTP incorporated in the synthesized complementary strand; 3' TTTTT single-stranded linker to array surface; dsDNA, one strand shown
# Procedure, shortened: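 Transcription factors were each fused at the N-terminus to a polyhistidine tag plus DsRed and expressed in E. coli BL21-CodonPlus before Ni–NTA purification. Binding to a double-stranded custom Agilent array was carried out with 200 nM protein at 25 °C for 1 h in PBS, 2% BSA, salmon testes DNA and 50 µM zinc acetate. The binding signal is per-feature fluorescence intensity, in arbitrary units, on an Axon 4000B scanner.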
row,Sequence,binding signal
1,GAATCAATGATTTTCACTTTACATGTCAGAGAATTCAATTCGGAGTCACCTAGTGCAG,9340 fluorescence intensity (a.u.)
2,TTTTATTAATTTAAAATACAATTATAGACGTGGGCCACTTCGGAGTCACCTAGTGCAG,16200 fluorescence intensity (a.u.)
3,ACTATCCGAAATTTCACTCTAATCTACTTTCGTCCCACATCGGAGTCACCTAGTGCAG,4140 fluorescence intensity (a.u.)
4,TCCTAATATAAAATTAATGGTTAAAGTTTGATAGAGGTACCGGAGTCACCTAGTGCAG,7460 fluorescence intensity (a.u.)
5,TTTAGATTGGATTTCGTTATGTGTTTTCCCATGTCATTTACGGAGTCACCTAGTGCAG,30300 fluorescence intensity (a.u.)
6,GAAAATTTTCCTATTTGGCCCTTTGATACAAAGGATTGGACGGAGTCACCTAGTGCAG,3360 fluorescence intensity (a.u.)
7,TACAAATGAATCAATCAATGTGAATTGGCGAAATCTCCAACGGAGTCACCTAGTGCAG,16700 fluorescence intensity (a.u.)
8,TTCCTGTTTCGCTTTAACTTGACTGCAATTCTGCAATCACCGGAGTCACCTAGTGCAG,5770 fluorescence intensity (a.u.)
9,ATATAATTTAGATACTTACAATGTAAATACATGCCGACTACGGAGTCACCTAGTGCAG,9240 fluorescence intensity (a.u.)
10,TTGACTTGATGTATAAATTTCTTTTCAATCTGTTACTTTACGGAGTCACCTAGTGCAG,12000 fluorescence intensity (a.u.)
11,TGACCAAACTGATTGGAAGTTGGGGAGAGGCTAGGTTGTTCGGAGTCACCTAGTGCAG,31600 fluorescence intensity (a.u.)
12,ATATAATAGATCTGGATAGATCTATTATAATCATTGGTTTCGGAGTCACCTAGTGCAG,8790 fluorescence intensity (a.u.)
13,ATTAAATTTGAAAATTTATTAAATTGTGCTGATAAGTCAACGGAGTCACCTAGTGCAG,14500 fluorescence intensity (a.u.)
14,TAGGAGATTATATTTAAATTAACTTTAAAGAGAAATCTTGCGGAGTCACCTAGTGCAG,11600 fluorescence intensity (a.u.)
15,CCTAATTTCTAACATTATATTGTTGCTTAGTGTACTAACTCGGAGTCACCTAGTGCAG,18700 fluorescence intensity (a.u.)
16,CTAAATTATTTCCTACTAGTACCTTCTAGAGAAACCCCAGCGGAGTCACCTAGTGCAG,16900 fluorescence intensity (a.u.)
17,TGAAATAATTAATTAAATTATCATTAAGCCCCAAACCGAGCGGAGTCACCTAGTGCAG,57300 fluorescence intensity (a.u.)
18,AAACTCAGTGACTGATGATAATCTGTTTGCAATTGAGTTGCGGAGTCACCTAGTGCAG,6210 fluorescence intensity (a.u.)
19,CAATAATTATGGTCCCCTCTCCTCGCCCAATCCCATCTCGCGGAGTCACCTAGTGCAG,33100 fluorescence intensity (a.u.)
20,AATAACACAATTGTTGATAATTGTTGGATTACTTTGTGAGCGGAGTCACCTAGTGCAG,16000 fluorescence intensity (a.u.)
21,GCTAATACTTAATTAATCATGCGCTAATGGACTGCTCTAGCGGAGTCACCTAGTGCAG,38000 fluorescence intensity (a.u.)
22,CTGATAGATATAGATGGGCATGATCCACTGTGCAATTGTGCGGAGTCACCTAGTGCAG,18100 fluorescence intensity (a.u.)
23,GAGTACATCAGCGATAATTTTGGTCTTACTAAAATTATGTCGGAGTCACCTAGTGCAG,3400 fluorescence intensity (a.u.)
24,TAGTAATCATTTGCATTCTATTAGCTGTAAAATAACATGACGGAGTCACCTAGTGCAG,4460 fluorescence intensity (a.u.)
25,GTACACTGTTCCCAATAATTAGTGAAAACTGTTGATGCCTCGGAGTCACCTAGTGCAG,5320 fluorescence intensity (a.u.)
26,TATATATATATATATATATATATATCTGATGCTCTCTTGCCGGAGTCACCTAGTGCAG,32000 fluorescence intensity (a.u.)
27,GTTTAGCAAATCCAGCACCCATTATACAGACTTTCTATGCCGGAGTCACCTAGTGCAG,65500 fluorescence intensity (a.u.)

row,Sequence,binding signal
1,GTGCTTCTTTTGTTAATGATGATTAGTTCATACAGTATGACGGAGTCACCTAGTGCAG,11200 fluorescence intensity (a.u.)
2,TTGACAGCAAATCGAGGAAATATGAATACGAAAGTAAACACGGAGTCACCTAGTGCAG,4490 fluorescence intensity (a.u.)
3,TCTTGATTGCTCTTGAGCCCGCATTTCTTCCCCTTCTTTACGGAGTCACCTAGTGCAG,25900 fluorescence intensity (a.u.)
4,ATTAGTTTGAGTAATTAGCTGCAATACATTATGACATATACGGAGTCACCTAGTGCAG,3740 fluorescence intensity (a.u.)
5,AGAACAGTTGATTTATTATGCACTAGTATAAATTCCAAACCGGAGTCACCTAGTGCAG,11200 fluorescence intensity (a.u.)
6,GTACAACAATTATAAAATTAAAATTGCATTTACCCGTTGCCGGAGTCACCTAGTGCAG,9520 fluorescence intensity (a.u.)
7,ATAGATTTTCAGTAACAGGGTGTAATAGCCACCGCCATAACGGAGTCACCTAGTGCAG,6130 fluorescence intensity (a.u.)
8,TGTAATTGGCATCTTGTATGCTTGATTTCCTGTGCTATCACGGAGTCACCTAGTGCAG,32700 fluorescence intensity (a.u.)
9,CCAAATGATTTCACTTGAAGATAAATGAATTCATTGTATGCGGAGTCACCTAGTGCAG,10900 fluorescence intensity (a.u.)
10,GCCCAATTAAGACTGTTTCAGTACATTAATCACCAAAGAACGGAGTCACCTAGTGCAG,10700 fluorescence intensity (a.u.)
11,TGGTATAAATTAAATCGAGATATATTATATTATTATATCTCGGAGTCACCTAGTGCAG,6020 fluorescence intensity (a.u.)
12,GCCCATCAGTCACCGCCGGAATTAAATCCCAGCGAATCCCCGGAGTCACCTAGTGCAG,4000 fluorescence intensity (a.u.)
13,ATCACATAAAATTCCAGGGTTAATTGGATCCATGCTACTGCGGAGTCACCTAGTGCAG,8150 fluorescence intensity (a.u.)
14,AACTTGATAGAAACGCCTGTGCTTTCTTGCTTCTATTCTGCGGAGTCACCTAGTGCAG,9240 fluorescence intensity (a.u.)
15,GGAAAATTTGCTTGTCCTAAATCTCGAGAATTAACAATAGCGGAGTCACCTAGTGCAG,3480 fluorescence intensity (a.u.)
16,TTAAATAACTTATAATTATAATATGAAATGGACGGAATATCGGAGTCACCTAGTGCAG,29200 fluorescence intensity (a.u.)
17,GGTTTAATCATTGACAAAATTAAACTGACTAGGAATGAAACGGAGTCACCTAGTGCAG,31500 fluorescence intensity (a.u.)
18,CATGGATAATTTGTTTTGGAGTGACACACTGACACTGATGCGGAGTCACCTAGTGCAG,9780 fluorescence intensity (a.u.)
19,CGAAGATTAATCTATCCTTCAGTATCTTTATATATACCGACGGAGTCACCTAGTGCAG,7170 fluorescence intensity (a.u.)
20,GATAATAATGTATGCAAATTGGAAAATTATAGAGCTACAGCGGAGTCACCTAGTGCAG,12700 fluorescence intensity (a.u.)
21,ACGTGTGATTAATTGAGTTTTAATTATTATAAACTTAAAACGGAGTCACCTAGTGCAG,27900 fluorescence intensity (a.u.)
22,CTTGTCTGTCACCAGTTCATCACGCGATGTCGTCATAGCTCGGAGTCACCTAGTGCAG,6790 fluorescence intensity (a.u.)
23,TGATTAGATTGGGTTTGGTTTAGTTTAGTTTAGCCTTTAACGGAGTCACCTAGTGCAG,5980 fluorescence intensity (a.u.)
24,AATTTTGATTAACATATCGCAGTTGGGGTGATCACGACTGCGGAGTCACCTAGTGCAG,29700 fluorescence intensity (a.u.)
25,GTAGGAAAATTTTGATGTGATGGAAAAGTTGAAAGTTTGACGGAGTCACCTAGTGCAG,7280 fluorescence intensity (a.u.)
26,ACCTAATGACGATGACTAATACGCAATCCTTTCAGAGATACGGAGTCACCTAGTGCAG,10400 fluorescence intensity (a.u.)
27,CTTTTGACATTATATTAGACAGATGGTAATCAAATTTAACCGGAGTCACCTAGTGCAG,10400 fluorescence intensity (a.u.)
